Source: the BET-seq Pho4 binding data (Le et al. 2018)
The list shows a part of the results. These are noisy estimates, calculated here from bound and input reads.

target: T1, Pho4 (S. cerevisiae) (UniProt P07270); assay: relative binding free energy (BET-seq); higher = weaker binding; settings: reference: library average
T1 sequence: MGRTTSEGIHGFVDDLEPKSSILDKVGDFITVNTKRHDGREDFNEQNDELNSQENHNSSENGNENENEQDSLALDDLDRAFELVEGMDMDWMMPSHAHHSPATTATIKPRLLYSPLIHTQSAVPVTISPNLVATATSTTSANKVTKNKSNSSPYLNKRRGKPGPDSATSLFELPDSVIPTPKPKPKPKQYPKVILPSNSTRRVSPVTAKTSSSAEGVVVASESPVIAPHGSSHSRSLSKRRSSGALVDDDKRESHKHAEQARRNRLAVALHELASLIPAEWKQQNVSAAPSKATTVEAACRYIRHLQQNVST

Sequence	relative binding free energy [kcal/mol]
GCGGTCACGTGGCTGG	0.09
GTGTCCACGTGTTTGT	0.07
TGTGGCACGTGCGTCA	-0.19
TTGCACACGTGCGTTT	0.04
TAAGTCACGTGCGGCG	0.14
TTCTTCACGTGATAGA	0.28
TTGGGCACGTGCATTA	-0.13
GATGGCACGTGTTTTC	0.03
GGTAGCACGTGCGTGG	-0.12
CCGGGCACGTGGGCGT	-0.35
AGTTGCACGTGCGCGT	-0.1
TATGTCACGTGTTGAT	0.04
TTAATCACGTGGGCTT	-0.08
AGACTCACGTGGGTAG	0.27
TGTTTCACGTGTCGTC	0.31
ATGCTCACGTGTGGGC	0.25
CTGGTCACGTGAGTTT	0.36
TTGTCCACGTGTAAGG	0.22
ATAGCCACGTGTGGGA	-0.1
TAGGACACGTGTAAGT	0.12
GGTTACACGTGTGAAA	0.17
TGGACCACGTGTGCGG	0.02
ACTTACACGTGGGGTA	-0.03
TACTGCACGTGTTGGG	0.01
CGCTTCACGTGTGGCG	0.21
ATGTACACGTGAGCGT	0.14

Sequence	relative binding free energy [kcal/mol]
CGATTCACGTGGTTCG	0.39
GAGTTCACGTGTAATT	0.33
CGGGTCACGTGGTGAT	0.01
TGGGACACGTGGTGGT	0.02
ACGGGCACGTGAGCTG	0.17
TCTTGCACGTGGCTGG	-0.1
GGGGTCACGTGTCTGA	0.12
TCTGTCACGTGAGAGT	0.24
GCCTTCACGTGGGTGT	0.17
GTTGCCACGTGTGTGA	-0.06
GTTAGCACGTGGTCTA	-0.17
GTTTACACGTGGTTTG	0.04
TTCCTCACGTGTTTAG	0.33
GGTAACACGTGAATTT	0.35
TCGTTCACGTGGTTCT	0.28
GTTTACACGTGATGGA	0.36
GTGTACACGTGGTCAA	0.02
GGATGCACGTGTATGG	0.03
ACGGGCACGTGGGAGA	-0.15
ACAAGCACGTGTTTGG	-0.07
AGAATCACGTGTGGAG	0.25
TAATCCACGTGGGTGG	-0.14
GTATTCACGTGGGAAT	0.28
AGGTACACGTGGTTCT	-0.03
TTGTTCACGTGCTAAT	0.25
AGTATCACGTGAGTAT	0.21

Sequence	relative binding free energy [kcal/mol]
GTTCTCACGTGGATAT	0.31
GGAATCACGTGGTCGT	0.03
GTATACACGTGTTGAG	0.09
GTACTCACGTGAGGAG	0.46
AAAATCACGTGGAGGG	-0.01
ACGTGCACGTGGTTAT	0.01
CGGAGCACGTGTAGGC	-0.01
TAGCTCACGTGGGGGA	0.21
TTATGCACGTGGATGC	0.04
TGGCACACGTGAGGTT	0.28
AGGTGCACGTGGCACG	-0.16
CATGGCACGTGGATTT	-0.05
ATTAACACGTGGTGAG	0
TGTGACACGTGATGGT	0.09
TTATGCACGTGGAGAT	-0.01
TGCCTCACGTGGGAGG	-0.01
GTTGGCACGTGACTAT	0.02
AGTCACACGTGGTGTA	0.07
GGTGTCACGTGCTGTA	0.11
AGGGTCACGTGCGGCC	0.13
AATGTCACGTGTGCTG	0.21
AGCTGCACGTGGGGTG	-0.27
CGCGGCACGTGCGTGG	-0.23
AGTGACACGTGACTTG	0.18
TTTGGCACGTGCTGGT	-0.07
TTCAACACGTGATGTG	0.2

Sequence	relative binding free energy [kcal/mol]
ATAAGCACGTGCAGGT	-0.14
GAATTCACGTGTGACT	0.65
GCTTTCACGTGTCGGT	0.21
GTTTGCACGTGAGTGA	0.29
AGTGTCACGTGATTTC	0.17
TTGGCCACGTGTTAGT	0.06
TTATTCACGTGAGGAA	0.37
AGAGTCACGTGCGCGT	0.11
TAAAACACGTGTGTAT	0.01
TTTGGCACGTGGGTCG	-0.13
TAATTCACGTGGTTGT	0.41
GTGAACACGTGGGGAA	-0.12
TGAGTCACGTGGTATA	0.17
CGGTTCACGTGAGTAA	0.4
AACGGCACGTGTGGAG	0.06
ACGAGCACGTGGGGGA	-0.11
CGGCGCACGTGCGGTG	-0.19
GTATTCACGTGGGTTC	0.06
TTACGCACGTGGAGGA	-0.12
TTGCACACGTGGGTAG	-0.05
AAGATCACGTGATTGT	0.14
CAAGTCACGTGTGATG	0.14
TCACGCACGTGGTGTG	-0.19
TTTGTCACGTGTTAGG	0.12
GCGGACACGTGTGATG	0.18
TGCGTCACGTGAATGA	0.33

Sequence	relative binding free energy [kcal/mol]
TTTTACACGTGTGGAA	0.2
GTGTACACGTGGACTG	0
CTGTGCACGTGTGGTG	0.04
GTATGCACGTGGGGGC	-0.09
TATGTCACGTGATTTC	0.2
AAATTCACGTGGGGTC	0.13
TCATGCACGTGAGGGG	0.15
AGGGCCACGTGTTCGG	-0.01
AGGGCCACGTGGAAGT	-0.09
TTTCGCACGTGTAGAG	0.07
ATGGCCACGTGTTGCT	-0.01
AGTCCCACGTGGGTGG	-0.29
CGTTTCACGTGTGTAT	0.24
ATTTGCACGTGTCTCG	0.07
TGACACACGTGGTGGG	-0.13
GGTTTCACGTGCGTTA	0.24
GTGATCACGTGAGATG	0.28
TGATGCACGTGGGTGT	-0.16
CGTATCACGTGAAGTT	0.35
AATTACACGTGTCGGG	0.17
GGGGGCACGTGCGTTT	-0.07
AGGTACACGTGGCGAG	-0.04
ATGATCACGTGTGTCT	0.1
GCAGGCACGTGTTGAT	0.01
TGTTTCACGTGGATAT	0.12
GGTAACACGTGGGTAA	-0.13

Sequence	relative binding free energy [kcal/mol]
TTTGGCACGTGAAATC	0.18
AGGAGCACGTGCGGTT	0.02
GATGACACGTGTGGTG	0.04
TCTGACACGTGGTGTG	-0.1
ACGCGCACGTGGGAGG	-0.06
TTTTGCACGTGCGGAC	0.06
TGTCTCACGTGGTTTA	0.19
TAGTTCACGTGACGTG	0.18
GTCAGCACGTGTGAGG	-0.06
ATGGTCACGTGGTTTG	-0.03
CTCGTCACGTGGAGGT	0.1
TGAGCCACGTGGGTGC	-0.27
GTATGCACGTGGGGAC	-0.02
TTGGCCACGTGGCTGT	-0.2
GGGCGCACGTGGTATA	-0.2
GGTCGCACGTGAGGTG	0.23
TAGAGCACGTGATTTG	-0.01
AATGGCACGTGATTTA	0.01
TATGCCACGTGTGGGG	-0.09
AGGCCCACGTGAGGGG	0.11
CTGTTCACGTGTAGGG	0.26
TTTTGCACGTGACCGT	0.09
TTGATCACGTGCAAGG	0.14
TGGCACACGTGTGTGA	0.02
GGGTGCACGTGGGCTC	-0.12
TCAGGCACGTGTTGGG	-0.06

Sequence	relative binding free energy [kcal/mol]
AGCGGCACGTGGTCTT	-0.11
GGATTCACGTGACTGT	0.31
GTTCACACGTGGGCAT	0.03
GTTGTCACGTGACTTG	0.14
AGTCGCACGTGTTGGC	0.21
TATTTCACGTGATATA	0.23
AGTATCACGTGGCTGA	0.02
CTGTCCACGTGTGGGT	-0.02
GGGTTCACGTGGTGGG	0.31
GTGTGCACGTGTAATT	0.18
TAAAGCACGTGGTTAG	-0.09
TATCGCACGTGTTATT	0.01
GTGGACACGTGTTGCT	0.12
TTAGCCACGTGTGAGT	-0.1
ACTAGCACGTGTGTAG	0.06
ATGTACACGTGGAAGT	0.12
TTGTGCACGTGCGTCT	-0.08
TTCTTCACGTGGTTAG	0.25
TTCGGCACGTGAAGTT	0.16
GGGACCACGTGCTGGG	-0.18
CGGAACACGTGGTTTG	-0.07
AGTCTCACGTGGTTAA	0.21
CTTATCACGTGGGTGA	0.01
GGTGGCACGTGTGCCT	-0.03
AAGGGCACGTGATATT	-0.02
GATTACACGTGGAATG	0.22

Sequence	relative binding free energy [kcal/mol]
CAGGCCACGTGGAGGG	-0.18
TTAGACACGTGTGGTA	0.05
GATTGCACGTGATGAT	0.32
GGAATCACGTGTCGTA	0.24
TTGGTCACGTGATGGT	0.34
TGCGGCACGTGGGCCG	-0.15
TCTTGCACGTGTGGAA	0.13
TTTCGCACGTGTGAGT	0.16
GGGCGCACGTGAGTTT	0.21
ATGGACACGTGAGGAG	0.29
CGGTGCACGTGGGAGG	-0.08
CGTTGCACGTGGTTTA	-0.06
TGTGGCACGTGTGGTA	-0.08
GCTTTCACGTGTGCGT	0.29
CGAGGCACGTGGTGTG	-0.2
TTGTTCACGTGGTAAC	0.31
AGGAACACGTGGGCTG	-0.1
GTTGCCACGTGTCTGG	-0.02
TGGGTCACGTGTTGAC	0.06
CAAAGCACGTGGGCGG	-0.15
TTATGCACGTGCATTG	-0.08
CGATTCACGTGTTGGA	0.32
GTAGGCACGTGCGGGT	-0.06
GGAAGCACGTGAAAGG	0.11
TGATGCACGTGGATTG	-0.01
AGTTACACGTGTACGT	0.24

Sequence	relative binding free energy [kcal/mol]
GTAATCACGTGGTGCT	0.06
TGGAGCACGTGTGGCC	-0.03
CGGAGCACGTGTAGTG	0.05
GGTATCACGTGGTGTC	0.14
TTGTTCACGTGTGCGC	0.16
GGCATCACGTGGATGG	0.04
TGTGTCACGTGACAGT	0.25
AGGGCCACGTGAGTTG	0.09
TTGGACACGTGGGAAG	-0.04
ATTATCACGTGAGGAT	0.43
ATTTCCACGTGATGTA	0.21
GGGCGCACGTGTGGTG	-0.03
GGTGCCACGTGGGCGG	-0.19
GGGCTCACGTGAGGAT	0.44
TGAAACACGTGAGATG	0.31
TTACGCACGTGTGGGC	-0.07
TTGATCACGTGAGTGG	0.37
GGTAGCACGTGGCTAG	-0.2
GGTGGCACGTGGAAGC	0.01
TAGTACACGTGTCATG	0.09
CTTTGCACGTGGGGTA	-0.23
TATTTCACGTGCGGGC	0.42
